According to PubChem BioAssay AID504333 (National Center for Advancing Translational Sciences (NCATS), 2011):
Values joined by “and” are separate entries in the source; they are usually repeats but may differ in a detail not shown here. Identical values can stand only once. Out of some 360,000 compounds screened, about 16,000 (4.4%) were called active. Inconclusive results, whose numbers are uncertain, are shown with a selection of clear calls. Calls follow the shape of the dose curve; as a rule, active = well fitted inhibition curve with a large enough effect; inconclusive = small, poorly fitted or top-dose-only effect; inactive = no such curve, though single readings can be large or run the other way. Where the call is inconclusive, the potency comes from a doubtful curve fit.

molecular target: Bromodomain adjacent to zinc finger domain protein 2B (Homo sapiens) (UniProt Q9UIF8); test: qHTS Assay for Inhibitors of BAZ2B; conditions: AlphaScreen BAZ2B-H3K14Ac peptide displacement; series mostly up to 114 µM; also: nearly all actives have a fitted effect of over 60% in size
UniProt Q9UIF8, sequence (Q9UIF8 whole entry, looked up, the tested form may be a part): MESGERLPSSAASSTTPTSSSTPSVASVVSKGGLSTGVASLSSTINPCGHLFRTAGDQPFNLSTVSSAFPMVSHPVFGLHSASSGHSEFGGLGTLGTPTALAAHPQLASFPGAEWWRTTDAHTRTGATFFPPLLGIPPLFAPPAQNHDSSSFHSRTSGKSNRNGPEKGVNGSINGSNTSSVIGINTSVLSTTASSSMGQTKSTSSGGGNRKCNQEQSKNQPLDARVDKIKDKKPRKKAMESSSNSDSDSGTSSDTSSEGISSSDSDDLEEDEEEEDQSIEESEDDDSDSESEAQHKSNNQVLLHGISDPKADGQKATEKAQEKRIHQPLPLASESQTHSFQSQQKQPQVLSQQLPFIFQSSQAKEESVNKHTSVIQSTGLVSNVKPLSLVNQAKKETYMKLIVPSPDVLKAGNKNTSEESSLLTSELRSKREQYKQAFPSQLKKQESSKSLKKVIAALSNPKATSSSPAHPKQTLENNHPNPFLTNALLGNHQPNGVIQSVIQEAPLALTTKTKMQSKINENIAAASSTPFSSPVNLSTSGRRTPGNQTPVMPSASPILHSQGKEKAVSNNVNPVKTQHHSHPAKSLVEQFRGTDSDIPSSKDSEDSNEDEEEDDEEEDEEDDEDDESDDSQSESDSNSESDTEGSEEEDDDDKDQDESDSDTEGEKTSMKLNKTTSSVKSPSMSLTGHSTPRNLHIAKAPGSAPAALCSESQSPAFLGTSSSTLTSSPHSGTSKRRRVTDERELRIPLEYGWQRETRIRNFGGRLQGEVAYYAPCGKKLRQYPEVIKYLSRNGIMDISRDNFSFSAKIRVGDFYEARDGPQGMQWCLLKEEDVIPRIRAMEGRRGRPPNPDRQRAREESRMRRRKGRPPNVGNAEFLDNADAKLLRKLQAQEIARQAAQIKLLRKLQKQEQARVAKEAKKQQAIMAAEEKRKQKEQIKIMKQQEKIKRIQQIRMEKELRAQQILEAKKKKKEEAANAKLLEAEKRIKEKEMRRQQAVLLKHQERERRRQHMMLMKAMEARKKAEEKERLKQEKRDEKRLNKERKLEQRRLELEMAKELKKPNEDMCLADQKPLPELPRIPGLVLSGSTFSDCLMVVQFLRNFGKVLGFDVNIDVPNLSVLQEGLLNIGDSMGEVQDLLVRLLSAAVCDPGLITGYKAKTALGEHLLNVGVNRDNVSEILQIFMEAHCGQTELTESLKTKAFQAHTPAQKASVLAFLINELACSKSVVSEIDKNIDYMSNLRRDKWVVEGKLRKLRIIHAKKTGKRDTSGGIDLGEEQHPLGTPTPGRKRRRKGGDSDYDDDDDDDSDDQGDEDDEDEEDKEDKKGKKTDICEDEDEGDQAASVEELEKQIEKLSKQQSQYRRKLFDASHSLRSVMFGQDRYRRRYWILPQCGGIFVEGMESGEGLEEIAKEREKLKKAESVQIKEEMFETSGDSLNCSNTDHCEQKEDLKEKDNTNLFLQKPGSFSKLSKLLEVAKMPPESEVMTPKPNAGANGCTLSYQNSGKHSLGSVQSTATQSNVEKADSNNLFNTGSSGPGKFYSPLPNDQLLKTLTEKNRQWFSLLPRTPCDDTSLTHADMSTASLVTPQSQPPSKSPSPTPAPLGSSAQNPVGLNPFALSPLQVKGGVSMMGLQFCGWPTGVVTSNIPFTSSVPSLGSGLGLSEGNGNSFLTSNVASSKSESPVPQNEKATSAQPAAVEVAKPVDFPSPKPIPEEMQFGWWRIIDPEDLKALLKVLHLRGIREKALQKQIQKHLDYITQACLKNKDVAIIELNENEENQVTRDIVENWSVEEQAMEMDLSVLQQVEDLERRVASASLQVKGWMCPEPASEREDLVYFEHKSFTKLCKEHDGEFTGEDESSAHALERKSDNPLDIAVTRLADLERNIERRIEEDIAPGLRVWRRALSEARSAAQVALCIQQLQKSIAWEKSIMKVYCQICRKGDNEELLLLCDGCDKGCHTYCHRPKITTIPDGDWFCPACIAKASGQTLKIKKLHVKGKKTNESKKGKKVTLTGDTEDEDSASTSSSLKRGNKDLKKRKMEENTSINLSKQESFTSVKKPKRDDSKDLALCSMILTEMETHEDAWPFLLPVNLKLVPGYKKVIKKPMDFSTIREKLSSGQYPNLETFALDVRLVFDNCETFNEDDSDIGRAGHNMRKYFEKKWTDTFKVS
Outline: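 Compounds, titrated to a top concentration of 110 uM, were incubated 30 min at room temperature with preformed BAZ2B/acetyl-K14 H3 peptide complex (50 nM each). Proximity signal was measured by AlphaScreen after 20 min with beads.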
Potency is read from the fitted curve at half-maximal effect; tags tell the direction and shape of the fitted curve.

**Q.** O=c1[nH][nH]cc1C=Nc1ccccc1O was tested. Which Potency did it give?
**A.** The Potency was active: 39.8 µM.

**Q.** For CCC1(c2ccccc2)NC(=O)N(CC(=O)Nc2ccc(Cl)c(S(=O)(=O)N3CCCCC3)c2)C1=O (centres undefined), which Potency is on record?
**A.** Its Potency is “inactive”.

**Q.** O=C(O)COc1ccccc1/C=N/NC(=O)CSc1nnc(SCc2ccc(Cl)cc2)s1 was tested. Which Potency did it give?
**A.** The Potency was inconclusive: 79.4 µM [inhibitor, single point].

**Q.** How did the Potency turn out when Cc1cc(NC(=O)CSc2nnc(Cc3cccn3C)n2CCc2ccccc2)no1 was run?
**A.** The Potency was inconclusive: 79.4 µM [inhibitor, single point].

**Q.** For COc1ccc(/C=C2/SC(=S)N(c3ccc(S(=O)(=O)Nc4nccs4)cc3)C2=O)cc1, which Potency is on record?
**A.** The Potency was inconclusive: 10 µM [inhibitor, full curve].

**Q.** Which Potency does the source give for O=C(NCc1cccnc1)c1ccc(-c2cc(Cl)ccc2Cl)o1 here?
**A.** The Potency was inconclusive: 79.4 µM [inhibitor, single point].

**Q.** Which Potency does the source give for COC(=O)c1c(C)[nH]c(C(=O)N2CCN(c3ccc(OC)cc3)CC2)c1C here?
**A.** The Potency was inconclusive: 89.1 µM [inhibitor, single point].

**Q.** For Cn1c(=O)n(C/C=C/c2ccccc2)c(=O)c2c1nc1n2CCCN1c1ccc(F)cc1, which Potency is on record?
**A.** The Potency was inconclusive: 89.1 µM [inhibitor, single point].

**Q.** For Cc1ccc2[nH]c(=O)c(C(c3nnnn3CC3CCCO3)N3CCc4ccccc4C3)cc2c1 (centres undefined), which Potency is on record?
**A.** The Potency was inconclusive: 79.4 µM [inhibitor, single point].

**Q.** Cc1ccc2oc(C(=O)N3CCN(CCO)CC3)c(C)c2c1 was tested. Which Potency did it give?
**A.** The Potency was inconclusive: 89.1 µM [inhibitor, single point].

**Q.** Which Potency does the source give for CSc1nnc(NC(=O)c2nc(S(=O)(=O)Cc3ccccc3)ncc2Cl)s1 here?
**A.** Its Potency is active: 44.7 µM.

**Q.** For CCCC(=Nc1ccc(N)cc1)C1=C(O)C(C(=O)OC)C(C)(C)CC1=O (centres undefined), which Potency is on record?
**A.** The Potency was inconclusive: 79.4 µM [inhibitor, single point].

**Q.** Cc1cc(C)nc(NS(=O)(=O)c2ccc(-n3cccc3)cc2)n1 was tested. Which Potency did it give?
**A.** Its Potency is inconclusive: 79.4 µM [inhibitor, single point].

**Q.** Cn1c(SCc2nc(-c3ccc(Cl)cc3)no2)nnc1-c1cccs1 was tested. Which Potency did it give?
**A.** Its Potency is inconclusive: 39.8 µM [inhibitor, partial curve, poor fit].

**Q.** For COc1cc(C(=O)NCC2CCCO2)cc(OC)c1OC (centres undefined), which Potency is on record?
**A.** Its Potency is “inactive”.

**Q.** Which Potency does the source give for CC1CCc2c(sc3nc(C(C)(C)C)nc(N4CCN(C(=O)CCl)CC4)c23)C1 (centres undefined) here?
**A.** Its Potency is inconclusive: 39.8 µM [inhibitor, partial curve].

**Q.** With COc1ccc2sc(N(CCCN(C)C)C(=O)c3ccc(S(=O)(=O)N(C)C4CCCCC4)cc3)nc2c1 as the molecule, how does the Potency read?
**A.** The Potency was inconclusive: 89.1 µM [inhibitor, single point].

**Q.** For CCC(C)NC(=O)C(=O)Nc1c2c(nn1-c1ccccc1)CS(=O)(=O)C2 (centres undefined), which Potency is on record?
**A.** Its Potency is inconclusive: 100 µM [inhibitor, single point].

**Q.** Which Potency does the source give for O=C(CSc1nc2c(sc3ccccc32)c(=O)n1CCO)NCC1CCCO1 (centres undefined) here?
**A.** Its Potency is “inactive”.

**Q.** Which Potency does the source give for O=C(c1ccc(S(=O)(=O)c2ccccc2Cl)c([N+](=O)[O-])c1)N1CCN(Cc2ccccc2)CC1 here?
**A.** Its Potency is inconclusive: 17.8 µM [inhibitor, full curve, poor fit].

**Q.** CCOC(OCC)c1cn(Cc2ccc3c(c2)C(=O)c2ccccc2C3=O)nn1 was tested. Which Potency did it give?
**A.** Its Potency is inconclusive: 35.5 µM [inhibitor, partial curve].

**Q.** With C[n+]1cccc(/C=N/Nc2nc(Cl)c(C#N)c(Cl)c2Cl)c1 as the molecule, how does the Potency read?
**A.** The Potency was inconclusive: 79.4 µM [inhibitor, single point].

**Q.** For COCCN(CCOC)S(=O)(=O)c1ccc(C(=O)Nc2nnc(C3CC3)o2)cc1, which Potency is on record?
**A.** The Potency was active: 31.6 µM.

**Q.** For COc1ccc(/C=N\NC(=O)c2cc(O)c(O)c(O)c2)cc1CN1CCN(c2ccc(F)cc2)CC1, which Potency is on record?
**A.** Its Potency is active: 35.5 µM.

**Q.** CC(c1ccc(Cl)cc1)n1c(-c2ccc3ccccc3n2)n[nH]c1=S (centres undefined) was tested. Which Potency did it give?
**A.** Its Potency is inconclusive: 50.1 µM [inhibitor, partial curve].

**Q.** Which Potency does the source give for O=C(Nc1cccc(S(=O)(=O)N2CCCCC2)c1)Nc1ccc(Cl)cc1Cl here?
**A.** Its Potency is “inactive”.

**Q.** For Cc1ccc(S(=O)(=O)Nc2ccc(N=Nc3ccc(O)cc3)cc2)cc1, which Potency is on record?
**A.** Its Potency is active: 44.7 µM.

**Q.** Which Potency does the source give for CCc1ccc(Cc2cnc(NC(=O)c3ccc4c(c3)CC(c3ccccc3)OC4=O)s2)cc1 (centres undefined) here?
**A.** The Potency was “inactive”.

**Q.** Which Potency does the source give for Cc1ccc(C(=O)NNc2cc(N3CCCC3)nc(N3CCCC3)n2)cc1 here?
**A.** The Potency was inconclusive: 31.6 µM [inhibitor, full curve].

**Q.** With CCOc1ccc2nc(NC(=O)CSCC(=O)Nc3cc(C)on3)sc2c1 as the molecule, how does the Potency read?
**A.** Its Potency is “inactive”.

**Q.** Which Potency does the source give for CC1(c2ccccc2)CC(c2ccccc2)=Nc2ccccc2N1 (centres undefined) here?
**A.** The Potency was inconclusive: 79.4 µM [inhibitor, partial curve].

**Q.** With CCCc1cc(C(=O)Nc2sc(C)c(C)c2C(=O)OCC)no1 as the molecule, how does the Potency read?
**A.** Its Potency is “inactive”.

**Q.** Which Potency does the source give for Cc1c(C)n(C)c2ccc(C(=O)N3CCN(c4ccccc4)CC3)cc12 here?
**A.** The Potency was active: 44.7 µM and active: 39.8 µM.

**Q.** Which Potency does the source give for COc1cccc(C2=NOC(C(=O)NCCCn3ccnc3)C2)c1 (centres undefined) here?
**A.** Its Potency is inconclusive: 89.1 µM [inhibitor, single point].

**Q.** Which Potency does the source give for Cc1cc(C)c2sc(NNC(=O)c3ccc(S(=O)(=O)N4CCc5ccccc5C4)cc3)nc2c1 here?
**A.** Its Potency is active: 5.62 µM.

**Q.** Which Potency does the source give for Cc1cc(C)cc(N(CC(=O)NC2CCCC2)C(=O)CCC(=O)Nc2nc(C)cs2)c1 here?
**A.** The Potency was “inactive”.

**Q.** With COc1ccc(-c2ccc(CCC(=O)O)n2-c2ccccc2OC)cc1 as the molecule, how does the Potency read?
**A.** Its Potency is inconclusive: 50.1 µM [inhibitor, partial curve].

**Q.** With CC(C)(C)c1ccc(/C=N/N2C(=O)CSC2=S)cc1 as the molecule, how does the Potency read?
**A.** Its Potency is inconclusive: 56.2 µM [inhibitor, single point].

**Q.** How did the Potency turn out when O=C1C=C(c2cc(C(F)(F)F)cc(C(F)(F)F)c2)C[C@@H](c2ccc(Cl)cc2)C1 was run?
**A.** The Potency was “inactive”.

**Q.** How did the Potency turn out when COc1ccc(Cl)cc1NC(=O)Cn1cccc1 was run?
**A.** Its Potency is inconclusive: 44.7 µM [inhibitor, partial curve].

**Q.** O=C(NNC1OC(CO)C(O)C(O)C1O)c1cccc(Br)c1 (centres undefined) was tested. Which Potency did it give?
**A.** Its Potency is inconclusive: 63.1 µM [inhibitor, partial curve, poor fit].

**Q.** How did the Potency turn out when O=C(CCc1nc2sc3c(c2c(=O)[nH]1)CCCC3)NCCc1ccccc1 was run?
**A.** The Potency was inconclusive: 89.1 µM [inhibitor, single point].

**Q.** Which Potency does the source give for CC(C)c1ccc(C2N=C(N)Nc3nc4ccccc4n32)cc1 (centres undefined) here?
**A.** The Potency was “inactive”.

**Q.** Which Potency does the source give for COc1ccc(S(=O)(=O)Nc2ccccc2)cc1OC here?
**A.** The Potency was “inactive”.

**Q.** How did the Potency turn out when COC(=O)C1=C(C)N(c2ccccc2)C(=S)NC1c1ccccc1C(F)(F)F (centres undefined) was run?
**A.** The Potency was inconclusive: 39.8 µM [inhibitor, partial curve].

**Q.** Which Potency does the source give for CC(C)N1CCc2c(sc(NC(=O)c3cc(-c4cccs4)nc4ccccc34)c2C(N)=O)C1 here?
**A.** The Potency was active: 39.8 µM.

**Q.** Which Potency does the source give for O=C(NC(=S)NCCO)c1sc2ccccc2c1Cl here?
**A.** Its Potency is inconclusive: 89.1 µM [inhibitor, single point].

**Q.** For OCCn1c(-c2ccccc2)csc1=Nc1ccccc1, which Potency is on record?
**A.** The Potency was active: 11.2 µM.

**Q.** O=C(CSc1nnc(-c2ccncc2)s1)Nc1ccc(Cl)c(C(=O)O)c1 was tested. Which Potency did it give?
**A.** The Potency was inconclusive: 89.1 µM [inhibitor, single point].

**Q.** With CCc1nc(Nc2ccc3nccnc3c2)c2oc3ccccc3c2n1 as the molecule, how does the Potency read?
**A.** The Potency was inconclusive: 89.1 µM [inhibitor, single point].

**Q.** CN(NC(=O)/C=C/C(=O)O)c1ncc(C(F)(F)F)cc1Cl was tested. Which Potency did it give?
**A.** Its Potency is inconclusive: 79.4 µM [inhibitor, partial curve, poor fit].

**Q.** COc1ccc(C2CC(=O)Nc3cc(OC)c(OC)cc32)cc1Br (centres undefined) was tested. Which Potency did it give?
**A.** Its Potency is inconclusive: 89.1 µM [inhibitor, single point].

**Q.** Which Potency does the source give for COc1ccc(S(=O)(=O)N2CCOC2CNC(=O)C(=O)NCc2cccnc2)cc1OC (centres undefined) here?
**A.** The Potency was inconclusive: 44.7 µM [inhibitor, partial curve].

**Q.** With CCC(CC)NC(=O)c1cccc(Oc2ccccc2)c1 as the molecule, how does the Potency read?
**A.** The Potency was “inactive”.

**Q.** With CC(=O)Nc1ccc(-c2csc(NC(=O)C3CC(=O)N(c4ccc5c(c4)OCCO5)C3)n2)cc1 (centres undefined) as the molecule, how does the Potency read?
**A.** Its Potency is inconclusive: 79.4 µM [inhibitor, single point].

**Q.** CCC1=Nc2cc(C(=O)NCCCN3CCOCC3)ccc2Sc2ccc(Br)cc21 was tested. Which Potency did it give?
**A.** The Potency was inconclusive: 44.7 µM [inhibitor, partial curve].

**Q.** With CCOC(=O)CC1c2cc(OCC)c(OCC)cc2CCN1C(=O)Nc1cccc(Cl)c1 (centres undefined) as the molecule, how does the Potency read?
**A.** Its Potency is inconclusive: 56.2 µM [inhibitor, partial curve].

**Q.** Which Potency does the source give for Cc1cccc(C(=O)NCC(=O)NC(C)c2ccc(-n3ccnc3)cc2)c1 (centres undefined) here?
**A.** Its Potency is “inactive”.

**Q.** How did the Potency turn out when O=C(CCN1CCN(c2ccc(Cl)cc2)CC1)Nc1nccs1 was run?
**A.** Its Potency is “inactive”.

**Q.** With Cc1ccc(S(=O)(=O)c2nc(-c3cccc(C)c3)oc2N2CCN(c3ccccc3)CC2)cc1 as the molecule, how does the Potency read?
**A.** The Potency was inconclusive: 3.55 µM [inhibitor, full curve].

**Q.** With O=C(N/N=C/c1ccc([N+](=O)[O-])o1)c1ccc2c(c1)OCO2 as the molecule, how does the Potency read?
**A.** Its Potency is inconclusive: 89.1 µM [inhibitor, single point].

**Q.** Cn1c(NCc2cc(Br)ccc2O)nc2ccccc21 was tested. Which Potency did it give?
**A.** Its Potency is “inactive”.

**Q.** S=c1nc[nH]c2nc[nH]c12 was tested. Which Potency did it give?
**A.** Its Potency is active: 50.1 µM and active: 35.5 µM.

**Q.** Which Potency does the source give for CCCCN1C(=O)C2NN=C(C(=O)OC)C2C1=O (centres undefined) here?
**A.** Its Potency is inconclusive: 7.08 µM [inhibitor, single point].

**Q.** Cc1ccc(-c2nnc(SCc3nc4ccccc4[nH]3)n2Cc2ccco2)cc1 was tested. Which Potency did it give?
**A.** The Potency was inconclusive: 79.4 µM [inhibitor, partial curve].

**Q.** How did the Potency turn out when CC1=NN(C(N)=S)C(=O)C1N=Nc1ccc(Cl)cc1Cl (centres undefined) was run?
**A.** Its Potency is inconclusive: 31.6 µM [inhibitor, partial curve].

**Q.** With CCCN1CCC(=O)N(CCO)CC1 as the molecule, how does the Potency read?
**A.** The Potency was “inactive”.

**Q.** With CCN(C(=O)COC(=O)CNC(=O)c1ccc(C)s1)c1ccccc1 as the molecule, how does the Potency read?
**A.** Its Potency is inconclusive: 70.8 µM [inhibitor, single point].

**Q.** How did the Potency turn out when COc1ccc(OC)c(NC(=O)c2cc(CN3CCCC3)on2)c1 was run?
**A.** The Potency was inconclusive: 89.1 µM [inhibitor, single point].
